Data taken from PubChem BioAssay AID938 (National Center for Advancing Translational Sciences (NCATS), 2007).
In all, about 73,000 compounds went through this assay and about 1,800 (2.5%) were called active. The inconclusive results got no clear call from the source; some entries with a clear call stand among them for comparison. The call rests on the fitted dose curve; in most records, active means well fitted activation curve with a large enough effect; inconclusive means small, poorly fitted or top-dose-only effect; inactive means no such curve, though single readings can be large or run the other way. No potency is given beside an inconclusive call; the fits are too rough.

test: qHTS Assay for Agonists of the Thyroid Stimulating Hormone Receptor: Activators of Intracellular cAMP Concentrations in Parental HEK 293; settings: parental HEK293 CNG cAMP sensor, membrane potential fluorescence; activation: at 57.1 µM (top of the series) unless noted; further: nearly all actives have a fitted effect of over 55% in size; on activation: % of control where 0% means no effect
Summary of the method: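 Parental HEK 293 cells stably expressing a cAMP-gated CNG channel were loaded with membrane potential dye containing 100 uM RO 20-1724 for 60 min. Compound added for 30 min; depolarization read as fluorescence intensity at 590 nm.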
Potency means the concentration at half of the fitted maximal effect; tags describe the fitted curve by direction and shape.

| Compound | activation | Potency |
| --- | --- | --- |
| CCn1cc(SCC(N)=O)c2ccccc21 | inactive: -14.2% |  |
| O=C(O)CCSc1nc2ccccc2s1 | inactive: 22.2% |  |
| CO[C@H]1COC(=O)[C@@H](Cc2ccccc2)NC(=O)[C@@H](C)COC(=O)CCC[C@@H]1C | inactive: -3.24% [at 11.4 µM] |  |
| O=C(COC(=O)c1ccc(Oc2ccccc2)cc1)Nc1nnc(-c2ccccc2)o1 |  | inconclusive [activator, single point] |
| CC(C)CN1CC[C@@]2(CCCN(C(=O)c3cc(C(F)(F)F)cc(C(F)(F)F)c3)C2)C1 | inactive: 12.3% |  |
| COc1ccccc1-c1nnc2sc(COc3ccc(Cl)cc3Cl)nn12 |  | inconclusive [activator, single point] |
| COc1ccc(CSc2nc(C)cc(=O)[nH]2)cc1Br |  | inconclusive [activator, partial curve] |
| COc1cc(OC)c2cc(-c3ccncc3)cnc2c1 | inactive: -4.67% |  |
| CC(C)N(Cc1nc(-c2ccccc2)no1)S(=O)(=O)c1ccccc1 |  | inconclusive [activator, partial curve] |
| C=C/C1=C/Cc2ccccc2C(C[N+](=O)[O-])C(C(=O)OC)(C(=O)OC)C1 (stereo unspecified) |  | inconclusive [activator, single point] |
| COc1cc(OC)cc(-c2nnc(SCC(=O)N3CCCc4ccccc43)o2)c1 |  | inconclusive [activator, partial curve] |
| COc1ccc(CNc2ccc(-c3ccc(OC)cc3)nn2)cc1 | inactive: -5.38% |  |
| N#CCCn1c(=O)c(CCc2ccccc2)nc2cnc(Nc3ccccc3)nc21 |  | inconclusive [activator, full curve, poor fit] |
| Cc1cnn(C(=S)NCCc2ccccc2)c1 |  | inconclusive [activator, single point] |
| Cc1cccc(S(=O)(=O)c2c(N)n(/N=C/c3ccco3)c3nc4ccccc4nc23)c1 | inactive: -0.825% |  |
| Cc1cc(C)n(S(=O)(=O)c2ccc(C)c(C)c2C)n1 |  | inconclusive [activator, partial curve] |
| O=c1[nH]nc(Sc2ncnc3sccc23)n1CCc1ccccc1 |  | inconclusive [activator, single point] |
| Cc1ccc2oc(-c3cccc(NC(=O)C4CCCO4)c3)nc2c1 (stereo unspecified) | inactive: 22.9% |  |
| CSc1nc(C2CC2)cc(-c2cccs2)c1C#N |  | inconclusive [activator, partial curve] |
| COc1cc2nc(N3CCN(C(=O)OCc4ccccc4)[C@H](C(=O)NC(C)(C)C)C3)nc(N)c2cc1OC |  | inconclusive [activator, single point] |
| COc1ccccc1-c1nnc(NC(=O)C(C)SC2=NCCS2)s1 (stereo unspecified) |  | inconclusive [activator, full curve, poor fit] |
| CCNc1ncc2nc(CCc3ccccc3)c(=O)n(C3CC3)c2n1 |  | inconclusive [activator, single point] |
| Cc1ccc(S(=O)(=O)NC(=O)OC23COCN2COC3)cc1 | inactive: 15.9% [at 11.4 µM] |  |
| CC1CCN(c2ccc(C(=O)NCc3cccs3)cn2)CC1 |  | inconclusive [activator, single point] |

| Compound | activation | Potency |
| --- | --- | --- |
| O=c1c(-c2ccccc2)nc2cnc(N3CCNCC3)nc2n1-c1ccccc1 | inactive: 9.6% |  |
| O=C(CCN1C(=O)COc2ccccc21)NCc1cccs1 |  | inconclusive [activator, partial curve] |
| COc1cc2c(C#N)c(N3CCOCC3)nc(N)c2c(N)n1 | inactive: -24.6% |  |
| CCCC(=O)c1cc(O)c(O)cc1O |  | inconclusive [activator, single point] |
| COc1ccc(-c2coc3cc(O)ccc3c2=O)cc1 | inactive: -10.6% |  |
| Cc1cc(N2CCOCC2)nc2cc(O)ccc12 |  | active: 6.31 µM |
| Cc1n[nH]c(C)c1S(=O)(=O)N1CCCC(C(=O)NCC2COc3ccccc3O2)C1 (stereo unspecified) |  | inconclusive [activator, single point] |
| O=C1[C@H]2[C@H]3[C@H](O)[C@H](O)C/C(=N/OC[C@@H](O)COCc4ccco4)[C@H]3CC[C@@H]2C(=O)N1C1CCCCC1 | inactive: 8.9% [at 11.4 µM] |  |
| O=C(NCCC1=CCCCC1)C1CCCN(c2nc3ccccc3o2)C1 (stereo unspecified) |  | inconclusive [activator, partial curve] |
| CCOC(=O)c1oc2ccc(S(=O)(=O)N3CCC(C)CC3)cc2c1C |  | active: 25.1 µM |
| COC(=O)COc1ccc(S(=O)(=O)NCCC2=CCCCC2)cc1C |  | inconclusive [activator, single point] |
| Cc1occc1-c1nnc(SCC(=O)Nc2ccc(F)cc2)n1Cc1ccccc1 |  | inconclusive [activator, partial curve] |
| CCN(CC)C(=O)c1cc2sc3ccccc3c2s1 |  | inconclusive [activator, partial curve] |
| Brc1ccccc1-c1nnc2sc(-c3ccc4c(c3)OCCO4)nn12 |  | inconclusive [activator, single point] |
| COC(=O)c1ccc(C)c(NS(=O)(=O)c2ccc3c(c2)OCCO3)c1 |  | inconclusive [activator, partial curve] |
| CCOc1ccccc1-c1nc(-c2ccc(NC(=O)Cc3ccccc3OC)cc2)no1 | inactive: 9.51% |  |
| COc1c(C(=O)Nc2c(C)n(C)n(-c3ccccc3)c2=O)ccc2ccccc12 |  | inconclusive [activator, single point] |
| COc1ccc(CNc2cc(-c3cccnc3)ncn2)c(OC)c1 | inconclusive: 67.1% [activator] |  |
| C=CCN(CC=C)CC(O)Cn1c2ccccc2c2ccccc21 (stereo unspecified) |  | inconclusive [activator, partial curve] |
| CC1CN(C(=O)Cc2ccc(-c3ccccc3)cc2)CC(C)O1 (stereo unspecified) |  | inconclusive [activator, single point] |
| Cc1ccc(C)c2[nH]c(=O)c(CN(Cc3ccc4c(c3)OCO4)Cc3nnnn3Cc3ccco3)cc12 |  | inconclusive [activator, partial curve] |
| O=C(NC1CCCCC1)NC1CCN(S(=O)(=O)Cc2ccccc2)CC1 | inactive: 9.13% |  |
| COCCn1c(=O)c(-c2cccs2)nc2cnc(N3CCNCC3)nc21 |  | inconclusive [activator, single point] |
| CC1=CCC(COC(=O)Nc2ccccc2)CC1 (stereo unspecified) |  | inconclusive [activator, single point] |

| Compound | activation | Potency |
| --- | --- | --- |
| C=CCOC(=O)C(C(C)=O)C(NC(=O)OC)c1cccc(C(F)(F)F)c1 (stereo unspecified) | inactive: 5.76% [at 11.4 µM] |  |
| Cc1ccc(S(=O)(=O)N(CC(=O)O)c2ccc(Cl)cc2)cc1 | inactive: 10.7% |  |
| Cc1nn(-c2ccccc2)c2nc(N)c(C#N)c(-c3ccc(F)cc3)c12 |  | inconclusive [activator, single point] |
| COCCn1c(=O)c(C)nc2cnc(OCc3ccccc3)nc21 |  | active: 3.16 µM |
| CC(=O)Nc1ccc(S(=O)(=O)N2CCN(c3cc(C)nc4ccccc34)CC2)cc1 | inactive: -8.14% |  |
| CC12CN3CC(C)(CN(C1)C3c1ccc(Br)cc1)C2 (stereo unspecified) |  | inconclusive [activator, partial curve] |
| Cc1csc(NC(=O)c2ccoc2C)n1 | inactive: -0.848% |  |
| CCC(=O)[C@@]1(C)[C@H](C)C[C@@H]2[C@@H]3CCC4=CC(=O)C=C[C@@]4(C)[C@H]3[C@H](O)C[C@]21C | inactive: 0.671% [at 25.6 µM] |  |
| O=C(CN1CCN(c2ccccn2)CC1)N1c2ccccc2Sc2ccc(C(F)(F)F)cc21 |  | inconclusive [activator, partial curve] |
| CC(C)(C)n1nnnc1C(c1cccs1)N(Cc1ccccc1)Cc1ccco1 (stereo unspecified) |  | active: 15.8 µM |
| CC[C@@]1([N+](=O)[O-])C[C@H]2C=C[C@@H]1C2 | inactive: -7.77% [at 11.4 µM] |  |
| O=C(O)c1ccc(NS(=O)(=O)/C=C/c2ccccc2)cc1O | inactive: 4.64% |  |
| CCn1c(-c2ccsc2)nc2c1c(=O)[nH]c(=O)n2Cc1ccccc1 |  | inconclusive [activator, partial curve] |
| Cc1ccccc1NC(=O)c1ccccc1NC(=O)c1ccco1 |  | inconclusive [activator, single point] |
| COC(=O)C1C(=O)c2c([nH]c(C(=O)OCCSC)c2C)CC1C (stereo unspecified) | inactive: 13% |  |
| O=C(C1CCCN(S(=O)(=O)c2cnc[nH]2)C1)N(CCc1ccccc1)Cc1ccccc1 (stereo unspecified) |  | inconclusive [activator, single point] |
| CC1CCCCC1NC(=O)CN1CCN(Cc2ccccc2Cl)C1=O (stereo unspecified) |  | inconclusive [activator, single point] |
| Cc1ccc2cc3c(NC(=O)c4cccnc4)nn(C)c3nc2c1 |  | inconclusive [activator, single point] |
| CCn1c(=O)c(=O)[nH]c2cc(C(=O)NC3CCCc4ccccc43)ccc21 (stereo unspecified) | inactive: 5.6% |  |
| COc1ccc(Cn2nnnc2C(c2ccc(F)cc2)N2CCN(C3CCCC3)CC2)cc1 (stereo unspecified) |  | inconclusive [activator, single point] |
| O=C(NC1CCCCC1)N(Cc1ccc(F)cc1)Cc1nc2ccccc2c(=O)[nH]1 |  | inconclusive [activator, partial curve] |
| NC(=O)c1ccccc1O |  | inconclusive [activator, single point] |
| COC(=O)[C@@]1(Cc2ccc(F)cc2)[C@H]2c3cc(C(=O)N(C)C)n(Cc4ccc(Cl)c(C(F)(F)F)c4)c3C[C@H]2CN1C(=O)c1ccccc1 |  | inconclusive [activator, partial curve] |
